From PubChem BioAssay (Tox21)
Values joined by “and” are separate entries in the source; they are usually repeats but may differ in a detail not shown here. Identical values can stand only once. Inconclusive results, whose numbers are uncertain, are shown with a selection of clear calls. Where the call is inconclusive, the potency comes from a doubtful curve fit. Active and inactive are the calls of the source. The call rests on the fitted dose curve; in most records, active means well fitted inhibition curve with a large enough effect in the signal ratio in the repeat runs (not every such curve was filed as active); inconclusive means weak or mixed curves, or effect the other way; inactive means no such curve, though single readings can be large or run the other way; the % refers to the signal ratio.

These molecules were tested against Peroxisome proliferator-activated receptor delta (Homo sapiens) (UniProt Q03181) (assay: qHTS assay to identify small molecule antagonists of the peroxisome proliferator-activated receptor delta (PPARd) signaling pathway (AID 743215;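 further: cells stimulated with agonist L165041 at 300 nM final during compound exposure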)). Conditions: HEK293H PPARd-UAS-bla, beta-lactamase FRET ratio, antagonist, 17 h; at 62 µM (top of the series).
Description: U.S. Tox21 Program National Center for Advancing Translational Sciences [NCATS] NIH Chemical Genomics Center [NCGC] U.S. Environmental Protection Agency [EPA] National Institutes of Environmental Health Sciences [NIEHS] National Toxicology Program [NTP] U.S. Food and Drug Administration [FDA] Tox21 Assay Overview: The peroxisome proliferator-activated receptors (PPARs) are lipid-activated transcription factors of the nuclear receptor superfamily with three distinct subtypes namely PPAR alpha, PPAR delta (PPARd) and PPAR gamma. All these subtypes heterodimerizes with Retinoid X receptor (RXR) and have different physiological functions. […] To identify the compounds that inhibit PPAR-delta signaling, GeneBLAzer PPAR delta UAS-bla HEK293H cell line (Invitrogen, Carlsbad, CA, USA) containing a beta-lactamase reporter gene under the control of an Upstream Activator Sequence (UAS) was used to screen the Tox21 compound library.
Tox21 Assay Protocol Summary: PPARd-bla cells were dispensed at 3000 cells/5uL/well in 1536-well black wall/clear bottom plates using a Multidrop Combi (Thermo Fisher Scientific, Waltham, MA) dispenser. After the assay plates were incubated at 37 C and 5% CO2 for 5 h, 23 nL of compounds dissolved in DMSO, positive controls or DMSO only was transferred to the assay plate by a Pintool station (Kalypsys, San Diego, CA), followed by addition of 1ul L165041 (300 nM, final concentration in the wells). The assay plates were incubated at 37 C for 17 h, and then 1 uL of LiveBLAzerTM B/G FRET substrate was added using a Bioraptr Flying Reagent Dispenser (FRD) workstation (Beckman Coulter, Indianapolis, IN, USA). The assay plates were incubated at room temperature for 2 h and fluorescence intensity was measured by an Envision plate reader (PerkinElmer, Shelton, CT).
On the % scale 0 is the no-effect control and ±100 the full control effect; potency means the concentration at half of the fitted maximal effect; tags describe the fitted curve by direction and shape or compound fluorescence and quenching.

Chain of UniProt Q03181 (Q03181 whole entry, looked up): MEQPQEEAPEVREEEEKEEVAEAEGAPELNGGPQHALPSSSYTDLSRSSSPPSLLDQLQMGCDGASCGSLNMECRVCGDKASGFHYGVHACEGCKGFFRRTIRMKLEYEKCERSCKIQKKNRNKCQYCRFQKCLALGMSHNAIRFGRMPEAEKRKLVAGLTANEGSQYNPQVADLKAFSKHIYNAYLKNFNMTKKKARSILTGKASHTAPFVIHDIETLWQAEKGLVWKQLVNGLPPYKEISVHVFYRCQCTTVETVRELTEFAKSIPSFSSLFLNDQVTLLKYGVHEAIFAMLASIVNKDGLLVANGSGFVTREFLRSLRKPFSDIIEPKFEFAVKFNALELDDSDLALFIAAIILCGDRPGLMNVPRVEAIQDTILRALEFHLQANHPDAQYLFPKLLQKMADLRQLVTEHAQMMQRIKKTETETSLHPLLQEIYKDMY

Row | Compound | ratio activity, negative = inhibition
1 | C(=NC1CCCCC1)=NC1CCCCC1 | inconclusive: -19.6%
2 | Cc1ccccc1[N+](=O)[O-] | inconclusive: 19.2%
3 | O=S(=O)(Oc1ccc(Cl)cc1)c1ccc(Cl)cc1 | inactive: 11.3%

Same assay, conditions: HEK293H PPARd-UAS-bla, beta-lactamase FRET ratio, antagonist, 17 h; at 80.4 µM (top of the series)

Row | Compound | ratio activity, negative = inhibition
4 | C(=NC1CCCCC1)=NC1CCCCC1 | inconclusive: 4.63%
5 | Cc1ccccc1[N+](=O)[O-] | inconclusive: -1.68%

Same assay, conditions: HEK293H PPARd-UAS-bla, beta-lactamase FRET ratio, antagonist, 17 h; ratio activity, negative = inhibition: at 62 µM (top of the series) unless noted

Row | Compound | Potency | ratio activity, negative = inhibition
6 | Cc1ccc(OP(=O)(Oc2ccccc2)Oc2ccccc2)cc1 | inactive | 
7 | CC(=O)c1cc(C(C)(C)C)cc2c1CCC2(C)C | inactive | 
8 | O=C1C(Cl)=C(Cl)C(=O)C(Cl)=C1Cl | inconclusive: 61.6 µM [falling, partial curve, poor fit] | inconclusive: 6.1%
9 | O=c1ssc(Cl)c1Cl |  | inconclusive: -51.4%
10 | N#CCCC(Br)(C#N)CBr (stereo not given) | inconclusive: 61.6 µM [partial curve, poor fit] | 
11 | COc1cc(-c2ccc(N)c(OC)c2)ccc1N |  | inconclusive: -25.8%
12 | CCC[CH2][Sn]([CH2]CCC)([CH2]CCC)[CH2]CCC | active: 15.5 µM | 
13 | CCCCOC(=O)c1ccccc1C(=O)OCc1ccccc1 | inconclusive: 0.0977 µM [rising, full curve, poor fit] | inconclusive: -32.5%
14 | CC(C)(C#N)C(C)(C)C#N | inactive | 
15 | C[C@]12CC[C@@H]3c4ccc(OC(=O)N(CCCl)CCCl)cc4CC[C@H]3[C@@H]1CC[C@@H]2O |  | inconclusive: -34.4%
16 | O=C(CCl)c1ccc(Cl)cc1Cl | inconclusive: 26.6 µM [partial curve] | inconclusive: -23.6%
17 | N#CC(C#N)=NNc1cccc(Cl)c1 | inconclusive: 1.74 µM [rising, partial curve] | 
18 | CC(C)(C)c1cc(O)ccc1O | active: 54.9 µM | inconclusive: -30.5%
19 | CC(C)N1C(=O)N(c2ccccc2)CSC1=NC(C)(C)C | inconclusive: 54.9 µM [inhibitor, single point] | 
20 | CC(C)=CC1C(C(=O)OCc2coc(Cc3ccccc3)c2)C1(C)C (stereo not given) |  | inconclusive: -27.7%
21 | N#CSCSC#N | inconclusive: 63.1 µM [cytotoxic, single point] and inconclusive: 27.3 µM [cytotoxic, single point] | 
22 | c1ccc2cc3c(cc2c1)-c1cccc2cccc-3c12 | inconclusive: 3.84 µM [fluorescent, full curve] | 
23 | CC(c1ccc(O)cc1)(c1ccc(O)cc1)c1ccc(O)cc1 | active: 4.9 µM | 
24 | Oc1ccc2ccc3cccc4ccc1c2c34 | inconclusive: 54.9 µM [fluorescent, partial curve, poor fit] | 
25 | CCCOCC(=Nc1ccc(Cl)cc1C(F)(F)F)n1ccnc1 | inconclusive: 48.9 µM [cytotoxic, partial curve] | 
26 | c1ccc2c(c1)Sc1ccccc1N2CC1CN2CCC1CC2 (stereo not given) | active: 11.9 µM | 
27 | CC(C)CC(C)Nc1ccc(Nc2ccccc2)cc1 (stereo not given) | inconclusive: 0.121 µM [rising, partial curve, poor fit] | 
28 | C[C@]12Cc3cn[nH]c3C[C@@H]1CC[C@@H]1[C@@H]2CC[C@@]2(C)[C@H]1CC[C@]2(C)O | inconclusive: 29.8 µM | 
29 | O=[N+]([O-])c1c(Cl)c(Cl)c(Cl)c(Cl)c1Cl | inconclusive: 61.6 µM [rising, single point] | 
30 | COP(=O)(OC)O/C(=C\Cl)c1cc(Cl)c(Cl)cc1Cl |  | inconclusive: -37.2%
31 | O=S(=O)(Oc1ccc(Cl)cc1)c1ccc(Cl)cc1 |  | inconclusive: -30% [at 80.4 µM]
32 | CC(C)(C)c1ccc(OP(=O)(Oc2ccccc2)Oc2ccccc2)cc1 | active: 22 µM | 
33 | CCOP(=S)(OCC)SCn1nnc2ccccc2c1=O | inconclusive: 49 µM [rising, partial curve] | 
34 | CCC(=O)O[C@H]1CC[C@H]2[C@@H]3CCC4=CC(=O)CC[C@]4(C)[C@H]3CC[C@]12C | inconclusive: 54.9 µM [inhibitor, single point] | 
35 | CCOC(=O)C(O)(c1ccc(Cl)cc1)c1ccc(Cl)cc1 | inconclusive: 55.5 µM [cytotoxic, single point] | inconclusive: -38.7%
